Measured values from publication PMC4336329 (PLoS ONE, 2015).
The whole screen tested about 310,000 compounds, of which about 14,000 (4.5%) showed an effect of 50% or more. The effect is printed as a negative number. Some of the results follow.

Molecular target: human ether-à-go-go-related gene (hERG) potassium channel (human, UniProt Q12809)
Assay: primary screen, population patch clamp on CHO cells stably expressing hERG
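Note: peak tail current of the secondary pulse compared with the same well before compound.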

Sequence of human ether-à-go-go-related gene (hERG) potassium channel (Q12809 whole entry, looked up): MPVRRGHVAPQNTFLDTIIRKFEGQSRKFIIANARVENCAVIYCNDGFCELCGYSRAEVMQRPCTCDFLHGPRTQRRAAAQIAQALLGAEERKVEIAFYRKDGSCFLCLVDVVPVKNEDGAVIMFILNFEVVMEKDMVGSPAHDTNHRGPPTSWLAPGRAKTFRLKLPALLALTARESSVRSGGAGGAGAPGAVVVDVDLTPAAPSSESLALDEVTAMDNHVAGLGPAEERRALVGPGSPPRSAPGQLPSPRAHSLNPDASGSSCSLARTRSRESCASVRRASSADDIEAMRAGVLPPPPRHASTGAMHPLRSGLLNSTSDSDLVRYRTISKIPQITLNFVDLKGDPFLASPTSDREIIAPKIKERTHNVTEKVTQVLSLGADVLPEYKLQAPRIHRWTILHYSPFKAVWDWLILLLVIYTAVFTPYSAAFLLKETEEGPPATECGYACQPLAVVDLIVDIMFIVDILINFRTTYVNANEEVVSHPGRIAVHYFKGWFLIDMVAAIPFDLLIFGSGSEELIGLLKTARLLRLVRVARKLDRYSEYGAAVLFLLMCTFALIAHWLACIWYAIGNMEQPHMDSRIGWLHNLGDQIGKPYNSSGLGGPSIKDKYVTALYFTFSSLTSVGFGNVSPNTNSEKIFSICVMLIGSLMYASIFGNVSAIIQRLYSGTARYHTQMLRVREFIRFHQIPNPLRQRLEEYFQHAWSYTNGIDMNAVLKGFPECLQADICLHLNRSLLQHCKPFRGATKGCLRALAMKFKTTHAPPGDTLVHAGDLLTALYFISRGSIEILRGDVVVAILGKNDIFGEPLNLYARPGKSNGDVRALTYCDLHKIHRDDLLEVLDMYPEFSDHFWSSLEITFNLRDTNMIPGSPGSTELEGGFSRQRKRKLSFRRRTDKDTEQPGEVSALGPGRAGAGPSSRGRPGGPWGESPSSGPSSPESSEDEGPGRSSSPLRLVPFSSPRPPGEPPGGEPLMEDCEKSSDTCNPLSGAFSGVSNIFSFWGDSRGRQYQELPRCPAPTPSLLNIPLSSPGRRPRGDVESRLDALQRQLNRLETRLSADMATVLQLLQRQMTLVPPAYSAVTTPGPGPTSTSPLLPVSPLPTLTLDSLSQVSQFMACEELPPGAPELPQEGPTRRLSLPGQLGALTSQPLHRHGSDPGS

SMILES	hERG current change (%, negative = inhibition) at 10uM [%]
CCOc1ccc(N=C2SCCCN2C(=O)c2c(CC)noc2C)cc1	-9.74
Cc1cc(=O)oc2cc(OCC(=O)N3CC[C@@]4(O)CCCC[C@H]4C3)ccc12	8.66
Cc1ccc(/C=N/NC(=O)C2COc3ccccc3O2)s1 (stereo not drawn)	-2.82
Cc1cc(-c2nnc(CCC(=O)NCC(C)c3ccccc3)o2)no1 (stereo not drawn)	11.1
CC(=O)c1c(C)[nH]c(C(=O)OCC(=O)NCCC(C)C)c1C	3.45
CCN(CC)S(=O)(=O)c1ccc(-c2nnc(SCC(=O)N3c4ccccc4CC3C)o2)cc1 (stereo not drawn)	-6.82
Cc1oc(S(=O)(=O)N2CCCCC2)cc1NC(=O)Nc1ccc(Cl)cc1	13.5
COc1ccc(NC(=O)CCN2C(=O)/C(=C/c3ccc4c(c3)OCO4)SC2=S)cc1	9.71
COc1ccccc1C(=O)Nc1ccnn1C1CCN(C(=O)c2cnsn2)CC1	-62.2
O=C(CSCc1ccc(F)cc1)Nc1nc2c(s1)CCCC2	-12.6
COc1ccc(N(C)C(=O)CCS(=O)(=O)c2cccc3nonc23)c(OC)c1	1.11
CCOC(=O)c1c(NC(=S)NC(=O)c2ccco2)sc2c1CCCC2	21.5
CCC(=O)Nc1ccc2c(c1)C(=O)N(C)C2=O	12.2
CCCNC(=O)NC(=O)COC(=O)c1ccc(OC)c(S(=O)(=O)N2CCCc3ccccc32)c1	-4.08
C[C@]12CCC(O)CC1=CCC1C2CC[C@]2(C)/C(=N\NC(N)=S)CCC12 (stereo partly drawn)	-24.1
O=C(NCc1ccc(F)cc1)Nc1ccccc1	19.2
CCCCCCCN1C(N(C)C)=NC[C@@H]1Cc1ccccc1	-80.1
Cc1cccc(N(C(=O)c2snc(C(N)=O)c2N)C(C(=O)NCC2CCCO2)c2cccs2)c1 (stereo not drawn)	-16.3
Cc1ccc(OCC(O)CN2CCN(CC(O)COc3ccc(C)cc3Cl)CC2)c(Cl)c1 (stereo not drawn)	-24.3
c1ccc(-c2csc3ncnc(-n4cnc5ccccc54)c23)cc1	-19.5
CCOCCc1nnc(NC(=O)CS(=O)(=O)Cc2ccccc2)s1	21.2
COc1ccc(CN2CCN(C(=O)c3ccco3)CC2)cc1	-12.3
Cc1c(Br)c(C(=O)N2CCc3ccccc32)nn1C	4.61

SMILES	hERG current change (%, negative = inhibition) at 10uM [%]
Cc1ccc(CN2CCC(C(=O)NCCC(C)C)CC2)o1.O=C(O)C(=O)O	4.86
COc1ccc(N=Cc2c(O)n(-c3ccc(C)cc3)c(=O)[nH]c2=O)cc1	4.33
COc1ccc(-n2cc(-c3ccccc3)[nH]c2=S)cc1	8.53
CC1CCC(C(C)C)C(OCC(O)CNC(C)(C)C)C1.Cl (stereo not drawn)	-18.5
COc1ccc2nc(/C(C#N)=C\c3ccc(C(=O)O)cc3)[nH]c2c1	36.6
CSc1cccc(-n2cc(-c3ccc4c(c3)OCO4)[nH]c2=O)c1	0.191
O=C(NCc1cccs1)C1CC(c2ccc(Cl)c(Cl)c2)=NO1 (stereo not drawn)	27.6
CCCCn1c(N)c(N(CCOC)C(=O)C2CCCN(C(=O)c3ccc(Cl)cc3)C2)c(=O)[nH]c1=O (stereo not drawn)	-5.18
Cc1ccc(NC(=O)CN(C)C(=O)c2ccc(-n3cncn3)c([N+](=O)[O-])c2)cc1	-49.2
O=C(CC1CCCCC1)N1CCCC(c2nc(-c3ccc(S(=O)(=O)N4CCCC4)cc3)no2)C1 (stereo not drawn)	-8.43
COc1ccccc1CC(=O)NC1CCCCCC1	10.9
CCOc1ncccc1C(=O)N(CC)CC(=O)NCc1ccc(Cl)cc1	1.69
O=C(O)CSCc1cnn(-c2ccccc2)c1-n1cccc1	-5.58
O=C(COC(=O)Cc1n[nH]c(=O)c2ccccc12)Nc1c(Cl)cccc1C(F)(F)F	12.2
Cc1ccc(NC(=O)CCN2C(=O)c3ccccc3S2(=O)=O)cc1C	-18
O=C(O)c1ccc(N/N=C/C=C/c2ccccc2)cc1	15.7
CCCCCC(=O)Nc1cccc(C2=NOC3(C2)C[C@H](C(N)=O)N(C(=O)COc2ccc(Cl)cc2)C3)c1 (stereo partly drawn)	-22
COC(=O)CCCC1=CC2=CC(=O)C(C)(OC(=O)c3cccs3)C(=O)C2=CN1c1ccccc1 (stereo not drawn)	-5.86
CSC1=NCCN1C(=O)c1cccc(C(F)(F)F)c1	6.83
COc1cccc(NC(=O)CCCCCn2nnc3ccccc3c2=O)c1	-5.76
Cc1ccc(C(=O)N2CCC3(CC2)Oc2ccc(F)cc2C(=O)C32CC(c3cccnc3)=NO2)s1 (stereo not drawn)	-2.48
CN(C)CCN1C(=O)NC(C)(c2ccc([N+](=O)[O-])cc2)C1=O (stereo not drawn)	-11.3
